{"source": "patent US20200400567A1", "about": "“FUSION POLYPEPTIDE” (PEKING UNIVERSITY, priority 2017, published 2020)", "key": {"M3R receptor": {"molecular_target": "T1, M3R receptor (Homo sapiens, UniProt P20309, DEL260-491)", "T1 construct": "pDisplay N-terminal leader (vector stated); expressed in transfected cells; host or cells: HEK293T", "T1 sequence (P20309 with tags, fused parts or gaps DEL260-491)": "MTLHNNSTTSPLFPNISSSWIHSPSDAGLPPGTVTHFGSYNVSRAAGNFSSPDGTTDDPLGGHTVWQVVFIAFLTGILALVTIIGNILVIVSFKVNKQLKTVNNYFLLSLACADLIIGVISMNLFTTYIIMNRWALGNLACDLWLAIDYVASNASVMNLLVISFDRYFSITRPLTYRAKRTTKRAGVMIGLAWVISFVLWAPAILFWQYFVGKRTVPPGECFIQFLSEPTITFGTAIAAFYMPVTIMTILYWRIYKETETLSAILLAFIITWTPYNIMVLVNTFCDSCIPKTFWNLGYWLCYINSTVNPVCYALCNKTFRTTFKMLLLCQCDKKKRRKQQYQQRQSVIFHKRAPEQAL", "assay": "ICL3-truncated M3R acetylcholine sensors (GRAB-ACh4.0), Opera Phenix and confocal perfusion in HEK293T cells", "assay_type": "cell-based", "procedure": "Opera Phenix™ enables confocal imaging of 60 wells in the center of a 96-well plate at a time, using a 63× water lens. Before the experiment, the cell medium was exchanged with 100 μL of the physiological solution, and the plate was placed on a sample holder and put into the instrument. The appropriate imaging focal plane, excitation wavelength and laser intensity, imaging wells and the imaging field of each well were set. After running the program, all selected areas will be automatically imaged by the instrument. After the first imaging was completed, the 96-well plate was taken out, and the physiological solution in each well was exchanged with a physiological solution containing a drug of desired concentration, and imaging was performed again.\nAfter the two images were completed, using the Harmony analysis software, red fluorescence from mCherry was employed to locate the membrane area of the cells in each field (the CAAX sequence in the RFP enables it to be located on the membrane), and the number of ROI was counted. The cpEGFP and mCherry fluorescence intensity ratio (GR ratio) in the ROI was calculated, and finally a report of the analysis results was exported. Comparing the change of GR ratio before and after adding drug, it can be determined whether the fluorescent sensor responds to the drug and the strength of the response."}, "[1]": {"test_system": "Gαq-mediated signal transduction pathway", "assay": "TGFα release in Gαq stable cell lines", "assay_type": "cell-based", "conditions": "gradient concentrations of ACh", "excerpt": "The coupling of GRAB-ACh4.0 and downstream Gαq was detected. First, three stable cell lines were constructed based on the Gαq cell line: M3R (marked as CHRM3 in FIG. 51), GRAB-ACh4.0, and blank (marked as Gq in FIG. 51) cell lines; then, the release of TGFα was used to characterize the extent to which the Gαq protein was activated. […], causing the release of TGF-α with alkaline phosphatase even when there is no signal from Gαq. Therefore, TPA was added to cells as a positive control."}}, "note": "“Also recorded” adds a separate entry of the source."}
{"molecule": "GRAB-ACh4.0: positions 260-491 of M3R receptor truncated, cpEGFP inserted, linkers GG and HNAK (protein) MTLHNNSTTSPLFPNISSSWIHSPSDAGLPPGTVTHFGSYNVSRAAGNFSSPDGTTDDPLGGHTVWQVVFIAFLTGILALVTIIGNILVIVSFKVNKQLKTVNNYFLLSLACADLIIGVISMNLFTTYIIMNRWALGNLACDLWLAIDYVASNASVMNLLVISFDRYFSITRPLTYRAKRTTKRAGVMIGLAWVISFVLWAPAILFWQYFVGKRTVPPGECFIQFLSEPTITFGTAIAAFYMPVTIMTILYWRIYKETEGGNVYIKADKQKNGIKANFHIRHNIEDGGVQLAYHYQQNTPIGDGPVLLPDNHYLSVQSKLSKDPNEKRDHMVLLEFVTAAGITLGMDELYKGGTGGSMVSKGEELFTGVVPILVELDGDVNGHKFSVSGEGEGDATYGKLTLKFICTTGKLPVPWPTLVTTLTYGVQCFSRYPDHMKQHDFFKSAMPEGYIQERTIFFKDDGNYKTRAEVKFEGDTLVNRIELKGIDFKEDGNILGHKLEYNHNAKTLSAILLAFIITWTPYNIMVLVNTFCDSCIPKTFWNLGYWLCYINSTVNPVCYALCNKTFRTTFKMLLLCQCDKKKRRKQQYQQRQSVIFHKRAPEQAL", "values": [{"measurement": "detectable acetylcholine concentration", "setting": "M3R receptor; Opera Phenix", "value": "10^−9 to 10^−5 mol/L"}, {"measurement": "average response of 18 cells", "setting": "M3R receptor; saturated ACh, confocal perfusion", "value": "more than 250%"}, {"measurement": "response in a single cell", "setting": "M3R receptor; saturated concentration of ACh, confocal perfusion", "value": "more than 250%"}, {"measurement": "activation of Gαq-mediated signal transduction pathway", "setting": "[1]", "value": "does not activate the downstream Gq-mediated signaling pathway; also recorded: did not activate the Gαq-mediated signal transduction pathway"}]}
